# Laboratory results reported in publication PMC7819943, “Rice protein-binding microarrays: a tool to detect cis-acting elements near promoter regions in rice”.
# The list shows a part of the results.
# Molecular target: T1, OsWOX13 (Oryza sativa, UniProt Q5QMM3 1-267)
# T1 sequence: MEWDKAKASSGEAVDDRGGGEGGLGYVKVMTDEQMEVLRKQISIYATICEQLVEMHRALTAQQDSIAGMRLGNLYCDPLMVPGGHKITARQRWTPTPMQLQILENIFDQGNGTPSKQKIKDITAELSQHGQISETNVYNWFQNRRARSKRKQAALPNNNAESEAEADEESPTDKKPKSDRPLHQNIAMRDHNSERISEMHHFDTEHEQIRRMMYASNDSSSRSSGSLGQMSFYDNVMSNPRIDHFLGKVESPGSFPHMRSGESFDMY
# Test: protein-binding microarray (RPBM); PBS, 2% BSA, 51.3 ng/ul salmon testes DNA, 50 uM zinc acetate, 200 nM TF, 25 C, 1 h; high values mean tight binding
# Settings: protein: recombinant; tags: N-terminal polyhistidine and DsRed monomer fusion (pET32a); label: CyDye5-dUTP incorporated in the synthesized complementary strand; 3' TTTTT single-stranded linker to array surface; dsDNA, one strand shown
# In short: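 Transcription factors were made in E. coli BL21-CodonPlus as N-terminal fusions to a polyhistidine tag and DsRed, then purified on Ni–NTA. After primer extension with Cy5-dUTP and blocking with 2% BSA, a custom Agilent array was exposed for 1 h at 25 °C to 200 nM protein in PBS, 2% BSA, salmon testes DNA and 50 µM zinc acetate. Washed arrays were scanned on an Axon 4000B, and the binding signal is per-feature fluorescence intensity in arbitrary units.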
row,Sequence,binding signal
1,TTGTTAATATGTCCAATTTAGCTTATCTTGATCTCAGTTTCGGAGTCACCTAGTGCAG,5800 fluorescence intensity (a.u.)
2,TCTGCTGATTATAATGTGACCTGCTTTGTGTAATTGTTGTCGGAGTCACCTAGTGCAG,21200 fluorescence intensity (a.u.)
3,CACAAATGGATAGAATTCGCCGAACAATTAAACAAAGATCCGGAGTCACCTAGTGCAG,5930 fluorescence intensity (a.u.)
4,AACTCATGATTAGAATTACACGATCTATTATGTATATTTACGGAGTCACCTAGTGCAG,18400 fluorescence intensity (a.u.)
5,CATGGCCTGATTAGCTGACTGAAATAGTTTATTTCACAACCGGAGTCACCTAGTGCAG,34900 fluorescence intensity (a.u.)
6,ACTTATAGATTGAAATAAACGAGTTCCCAAGTTAGTTTTACGGAGTCACCTAGTGCAG,18500 fluorescence intensity (a.u.)
7,ATCTCAATCAAAGGTCACCTACTACATACCTGCACCCATCCGGAGTCACCTAGTGCAG,13900 fluorescence intensity (a.u.)
8,TGTTGATGGCTAAAACACGAGTTATTTTATAACGATACAGCGGAGTCACCTAGTGCAG,3810 fluorescence intensity (a.u.)
9,AGAGCTAATTGGTAATGTTTCTCTCCACAAAATTTTGATGCGGAGTCACCTAGTGCAG,35400 fluorescence intensity (a.u.)
10,TTTCGGTGGTAAATTGACAATTACAACATGCCCTAATAGCCGGAGTCACCTAGTGCAG,41800 fluorescence intensity (a.u.)
11,TCTTAATTGGCATATTTCAAAAGTGGCAAATAATTAAATGCGGAGTCACCTAGTGCAG,31400 fluorescence intensity (a.u.)
12,CGCCCACTGAATTAATCAATCAGTAAAGCTGCCACCGTGCCGGAGTCACCTAGTGCAG,39100 fluorescence intensity (a.u.)
13,ATGATTTGTTTGATAATGCCCTCTGTTATTAAGGATGATTCGGAGTCACCTAGTGCAG,20600 fluorescence intensity (a.u.)
14,ACAAATATCCAATTATATTGTAATTTAAATAACTAATAATCGGAGTCACCTAGTGCAG,3900 fluorescence intensity (a.u.)
15,AGATAATTCTTACTAGATGATTATTGTATATGCTGCTATCCGGAGTCACCTAGTGCAG,9000 fluorescence intensity (a.u.)
16,ATCGATTCCACGCAATCACGCGCCGTGCCATCACTACGATCGGAGTCACCTAGTGCAG,3710 fluorescence intensity (a.u.)
17,AAGCAATTAAGAAACACCATAATGGACACTAAATTACCATCGGAGTCACCTAGTGCAG,9970 fluorescence intensity (a.u.)
18,GCAGCAGATTGATCTCGATCGACCGATCCGCCCGCCAGGTCGGAGTCACCTAGTGCAG,20100 fluorescence intensity (a.u.)
19,CTGTGATATGAGAACGATTGAGATGATGTCTGAACACAAACGGAGTCACCTAGTGCAG,4500 fluorescence intensity (a.u.)
20,GATGATTTTGCTGGAGTTTTCTTTTACAACCAGAACTGTACGGAGTCACCTAGTGCAG,15900 fluorescence intensity (a.u.)
21,TCATAATGCATCAATCTATTACTTTAGCTATCTATTTATACGGAGTCACCTAGTGCAG,7720 fluorescence intensity (a.u.)

row,Sequence,binding signal
1,TACATTGATGGAGAATTTAGAAGGAAGATAAATTGAAGGACGGAGTCACCTAGTGCAG,13700 fluorescence intensity (a.u.)
2,TTATGATGTAATTAGGCTCAAAAGATTCGTCTCGCAATTTCGGAGTCACCTAGTGCAG,16500 fluorescence intensity (a.u.)
3,TGATTCAGCAATTAACTGCGATACTATCATTATTATCAACCGGAGTCACCTAGTGCAG,7120 fluorescence intensity (a.u.)
4,ATAAATTATACAGTGTTACTTCTCTGTTAATTGTTCATATCGGAGTCACCTAGTGCAG,10500 fluorescence intensity (a.u.)
5,AACTGAAATTAGTACTCTCAAACTATATTCAGATGCGTGTCGGAGTCACCTAGTGCAG,4560 fluorescence intensity (a.u.)
6,GAGTAATTGTTTTACTTTGTGTAACGTCATGGGACCTAGACGGAGTCACCTAGTGCAG,10200 fluorescence intensity (a.u.)
7,GCAGCATGATTTTGACAGTGTGAGAGGTTTGAGCAAGAATCGGAGTCACCTAGTGCAG,3910 fluorescence intensity (a.u.)
8,ATGATTAACCATAAGTGCTACAGTGACCCACATGTGTTAACGGAGTCACCTAGTGCAG,20100 fluorescence intensity (a.u.)
9,TTATACAAATTATACCTGTTAATTATTGTGATTGTTTGGTCGGAGTCACCTAGTGCAG,36800 fluorescence intensity (a.u.)
10,CGAATCTATTAAACATAATTAATTCGTTATTAGCAAATGTCGGAGTCACCTAGTGCAG,11100 fluorescence intensity (a.u.)
11,GTACATTTTAATGATTATATTATGATGATGAAAATTGTATCGGAGTCACCTAGTGCAG,15300 fluorescence intensity (a.u.)
12,TCTCATAATTCTTGAATAGATTTGCATGCGAAATCTATTACGGAGTCACCTAGTGCAG,4520 fluorescence intensity (a.u.)
13,TATATATATATATATATATATATACCCACGTGAGGACGTACGGAGTCACCTAGTGCAG,31500 fluorescence intensity (a.u.)
14,TCTAATTATATGATATTTTAATGGATTATCCCTCGATAAGCGGAGTCACCTAGTGCAG,27400 fluorescence intensity (a.u.)
15,CAATGGAGTTAATTGTTGCAAATCCTACATTGGTGAATATCGGAGTCACCTAGTGCAG,8970 fluorescence intensity (a.u.)
16,AAAATTCTGAACTAACTAATTGGTAATACAAATCCATTCTCGGAGTCACCTAGTGCAG,10700 fluorescence intensity (a.u.)
17,CTTATGTTAATTATTGTTATTATCTAAAACTAACAGATTACGGAGTCACCTAGTGCAG,24200 fluorescence intensity (a.u.)
18,ATACCCTTGTTAATTAGGTACTCTAATTTTCTTTGCGTGTCGGAGTCACCTAGTGCAG,13400 fluorescence intensity (a.u.)
19,ACTTGTAGTTGACCCGCAAATTAGTGCTGCTTAATTTATACGGAGTCACCTAGTGCAG,3640 fluorescence intensity (a.u.)
20,GGATTCTAATTGTCCTTGTAAATTGTACACAGGACAATACCGGAGTCACCTAGTGCAG,5320 fluorescence intensity (a.u.)
21,GATCTAATGATGCGTTCAATCTAGTTTACATCTGCAATGTCGGAGTCACCTAGTGCAG,8640 fluorescence intensity (a.u.)
